Where “and” joins values, the source holds several entries; their conditions need not be identical. Equal entries are not always repeated. Screen size: about 360,000 compounds; about 25,000 (6.9%) were called active. Inconclusive results, whose numbers are uncertain, are shown with a selection of clear calls. The call rests on the fitted dose curve; in most records, active means well fitted inhibition curve with a large enough effect; inconclusive means small, poorly fitted or top-dose-only effect; inactive means flat fitted curve, though single readings scatter. A potency beside an inconclusive call is a rough fit, not a confirmed value.
target: Luciferin 4-monooxygenase (Photinus pyralis) (UniProt P08659); assay: qHTS profiling assay for firefly luciferase inhibitor/activator using purifed enzyme and Km concentrations of substrates (counterscreen for miR-21 project); conditions: purified FLuc, luminescence inhibition; series mostly up to 57.5 µM; further: nearly all actives have a fitted effect of over 55% in size
Procedure, shortened: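 Purified P. pyralis luciferase (10nM final) with 10uM D-luciferin and 10uM ATP (Km levels) in 50mM Tris acetate pH 7.5, 10mM Mg acetate, 0.01% Tween-20, 0.05% BSA; qHTS 6-point titration, ~60 µM downward; luminescence read.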
Potency means the concentration at half of the fitted maximal effect; tags describe the fitted curve by direction and shape.

Sequence of UniProt P08659 (P08659 whole entry, looked up): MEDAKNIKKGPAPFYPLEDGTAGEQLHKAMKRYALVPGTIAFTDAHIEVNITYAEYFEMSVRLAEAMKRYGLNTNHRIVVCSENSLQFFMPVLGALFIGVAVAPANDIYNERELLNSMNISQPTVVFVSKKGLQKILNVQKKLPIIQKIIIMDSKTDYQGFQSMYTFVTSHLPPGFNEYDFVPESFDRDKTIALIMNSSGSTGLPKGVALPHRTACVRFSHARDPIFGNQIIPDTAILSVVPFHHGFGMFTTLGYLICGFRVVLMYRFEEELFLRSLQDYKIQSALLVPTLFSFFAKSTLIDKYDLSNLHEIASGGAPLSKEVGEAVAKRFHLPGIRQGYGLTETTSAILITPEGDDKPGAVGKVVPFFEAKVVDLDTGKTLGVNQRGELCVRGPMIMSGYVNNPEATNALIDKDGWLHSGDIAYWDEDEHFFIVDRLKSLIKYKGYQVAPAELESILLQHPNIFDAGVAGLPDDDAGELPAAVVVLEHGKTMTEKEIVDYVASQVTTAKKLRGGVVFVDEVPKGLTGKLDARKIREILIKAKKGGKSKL

SMILES | Potency
Cc1ccc(/C=C/C(=O)N2CC(=O)Nc3ccccc32)o1 | inconclusive: 33.8 µM [inhibitor, partial curve, poor fit]
COc1ccccc1CNC(=O)Cc1ccccc1 | inconclusive: 30.1 µM [inhibitor, partial curve, poor fit]
CCOC(=O)c1nn(-c2ccccc2)cc1O | inconclusive: 23.9 µM [inhibitor, partial curve]
CC(=O)Nc1cccc(NC(=O)CSc2nccn2Cc2ccccc2)c1 | inactive
COc1cc(C2Nc3cc(Cl)c(S(N)(=O)=O)cc3S(=O)(=O)N2)ccc1OCc1ccccc1 (stereo unspecified) | inconclusive: 16.9 µM [inhibitor, partial curve]
Cc1c(CC(=O)NCC(=O)O)c(=O)oc2cc3occ(-c4ccccc4)c3cc12 | active: 23.9 µM
Cc1oc(C(C)(C)C)cc1C(=O)Nc1cccc(/C=C/C(=O)O)c1 | active: 12 µM
Cc1ccccc1-c1noc(-c2ccc(NCc3cccnc3)c([N+](=O)[O-])c2)n1 | inactive
COc1ccccc1-c1nnc(NC(=O)c2cccc(N3C(=O)CCC3=O)c2)o1 | active: 19 µM
CCCc1cc(=O)oc2c(C)c(OCC(=O)N3CCC[C@@H]3C(=O)O)ccc12 | inactive
Cc1ccccc1NC(=O)c1c(C)oc2ccc(O)c(CN3CCCCCC3)c12 | inactive
CN1c2ccccc2C(O)=C(C(=O)Nc2ccccc2)S1(=O)=O | inconclusive: 26.9 µM [inhibitor, single point]
FC(F)(F)c1cccc(Nc2nc3nonc3nc2Nc2ccc(Cl)cc2)c1 | inconclusive: 30.1 µM [inhibitor, partial curve, poor fit]
CCOCCCNC(=O)CSCc1nc(-c2ccc(SC)cc2)oc1C | inconclusive: 21.3 µM [inhibitor, partial curve, poor fit]
CCN(C(=O)Cn1c(C(=O)OC)cc2sccc21)c1cccc(C)c1 | inactive
N#C/C(=C\c1c[nH]c2ccccc12)C(=O)NCC1CCCO1 (stereo unspecified) | active: 16.9 µM
O=C(O)c1c2c(nc3ccccc13)/C(=C/c1cccc([N+](=O)[O-])c1)CCC2 | inconclusive: 30.1 µM [inhibitor, single point]
CCCCNC(=O)Nc1nnc(SCC(=O)OCC)s1 | inconclusive: 37.9 µM [inhibitor, single point]
COc1ccc(/C=C/C(=O)NCc2ccccn2)cc1OC | inactive
CCOc1ccc(S(=O)(=O)N2CCC(C(=O)NCc3ccccn3)CC2)cc1C | inactive
Cc1occc1C(=O)N=Nc1c(O)[nH]c2ccc(Br)cc12 | inconclusive: 12 µM [inhibitor, partial curve]
CCC(=O)C1CCCN(C(=O)CCc2nnc(C3(c4ccc(Cl)cc4)CCC3)o2)C1 (stereo unspecified) | active: 13.5 µM
Cc1ccc([N+](=O)[O-])cc1NC(=O)c1ccoc1C | inconclusive: 21.3 µM [inhibitor, partial curve, poor fit]
CC1CCN(C(=O)CSCC(=O)Nc2nc(-c3cccs3)cs2)CC1 | inconclusive: 30.1 µM [inhibitor, partial curve, poor fit]

SMILES | Potency
Cc1nc(NC(=O)CC(C)C)sc1-c1csc(Nc2ccc(Cl)cc2Cl)n1 | inconclusive: 19 µM [inhibitor, partial curve, poor fit]
O=C(Nc1ccc(OC(F)(F)F)cc1)c1[nH]ncc1[N+](=O)[O-] | inconclusive: 26.9 µM [inhibitor, partial curve]
O=C(CC(c1ccccc1)C1CCCCC1=O)c1ccco1 (stereo unspecified) | inconclusive: 0.849 µM [inhibitor, full curve, poor fit]
Cc1ccc(-c2nc3sc(CCNC(=O)c4ccc(F)c(F)c4)c(C)n3n2)cc1 | inconclusive: 2.39 µM [inhibitor, partial curve, poor fit]
Cc1ccc(C(=O)NCc2ccc3c(c2)CCO3)cc1C | inconclusive: 26.9 µM [inhibitor, single point]
Cc1ccc(NCCC(=O)c2cccc([N+](=O)[O-])c2)c(C)c1 | active: 23.9 µM
CC(Oc1ccc2c(c1)oc(=O)c1ccccc12)C(=O)NCC1CCC(C(=O)O)CC1 (stereo unspecified) | inconclusive: 30.1 µM [inhibitor, partial curve, poor fit]
C=CCn1c(SCC(N)=O)nnc1-c1cc2c(s1)CCC(CC)C2 (stereo unspecified) | active: 7.57 µM
O=C(NCc1cccs1)c1cc(-c2ccncc2)nc2ccc(Br)cc12 | inconclusive: 23.9 µM [inhibitor, partial curve, poor fit]
Nc1ccc2nc(-c3ccc(N)c(Cl)c3)[nH]c2c1 | active: 6.01 µM
Cc1ccc(/C=N/Nc2ccccn2)s1 | active: 10.7 µM
Cn1cc(S(=O)(=O)N2CCCC2)cc1C(=O)Nc1ccc(F)cc1F | inactive
O=C(CN1C(=O)C2CC=CCC2C1=O)Nc1nc2ccc(F)cc2s1 (stereo unspecified) | inconclusive: 30.1 µM [inhibitor, partial curve, poor fit]
COC(=O)Cn1c(=NC(=O)c2ccc(Cl)s2)sc2cc(F)ccc21 | inconclusive: 1.69 µM [inhibitor, partial curve, poor fit]
CC(C)c1ccc(C2CC(=O)N3CN(C4CCCCC4)CSC3=C2C#N)cc1 (stereo unspecified) | inconclusive: 12 µM [inhibitor, partial curve]
COc1ccc(OC)c(C(=O)N/N=C/c2ccccn2)c1 | inconclusive: 21.3 µM [inhibitor, partial curve, poor fit]
CC(C)Oc1cccc(C(=O)Nc2ccccc2N2CCOCC2)c1 | inconclusive: 19 µM [inhibitor, partial curve]
O=C1Nc2ccccc2N(O)N1c1cc(-c2cccc(Cl)c2)no1 | active: 21.3 µM
CC1=C(C(=O)Nc2ccccc2)C(c2ccc(Br)cc2)n2nc(CCCO)nc2N1 (stereo unspecified) | inactive
CC(=O)NS(=O)(=O)c1ccc(NC(=O)c2cc(-c3cccs3)nc3ccccc23)cc1 | inconclusive: 21.3 µM [inhibitor, single point]
CCOc1ccc2nc(NC3=NC(c4ccc(OC)cc4)CC(=O)N3)nc(C)c2c1 (stereo unspecified) | inconclusive: 16.9 µM [inhibitor, partial curve, poor fit]
O=C(CN1C(=O)NC2(CCCCC2)C1=O)Nc1nc2c(F)cc(F)cc2s1 | inactive
COc1ccccc1N1CCN(C(=O)c2nn(C)c3c2CS(=O)(=O)c2ccccc2-3)CC1 | inconclusive: 4.78 µM [inhibitor, partial curve, poor fit]
CC(C)(C)c1ccc(C(=O)NNC(=O)C2CCCCC2)cc1 | inconclusive: 26.9 µM [inhibitor, partial curve, poor fit]

SMILES | Potency
Cc1ccccc1NC(=O)c1cnn(-c2ccccc2)c1C | active: 13.5 µM
Cc1ccc(NC(=O)Nc2cccc(C)n2)cc1 | active: 2.13 µM and active: 2.39 µM
CN1CCN(C(=S)c2ccc(-c3cc(Cl)ccc3Cl)o2)CC1 | active: 16.9 µM
CCOC(=O)CSC(=S)NC(=O)c1ccc(OC)cc1 | inconclusive: 26.9 µM [inhibitor, single point]
O=C(Nc1cccc(-c2nc3cccnc3s2)c1)c1ccco1 | active: 10.7 µM
O=c1cc(-c2ccco2)nc(-c2cccs2)o1 | inconclusive: 8.49 µM [inhibitor, partial curve]
Cc1ccc(SCCSc2nc(N)cc(=O)[nH]2)cc1 | inconclusive: 37.9 µM [inhibitor, single point]
O=C(CN(Cc1ccccc1)C(=O)CNS(=O)(=O)c1ccccc1)NCc1ccco1 | inactive
CC(C)=CCN1CCN(Cc2cnc(N3CCOCC3)s2)CC1CCO (stereo unspecified) | active: 2.13 µM
COc1ccccc1C(=O)Nc1ccc(C(=O)O)cc1 | inactive
CSc1ccccc1NC(=O)Cn1nc([N+](=O)[O-])cc1C | inactive
N#C/C(=C(/O)COC(=O)COc1ccc(Cl)cc1)c1nc2ccccc2[nH]1 | inactive
CC(=O)/C(N=Nc1ccc2c(c1)OCCO2)=C(\C)O | active: 9.53 µM
CC(=O)N/C(=N\c1nc(C)cc(C)n1)Nc1ccc2ccccc2c1 | inconclusive: 21.3 µM [inhibitor, single point]
C/C(=N\NC(=O)C1=NNC(=O)C1C)c1cccs1 (stereo unspecified) | inconclusive: 23.9 µM [inhibitor, partial curve, poor fit]
CC(=O)Nc1nc(-c2ccc3c(c2)CCN3C(=O)C2CC2)c(C)s1 | inconclusive: 37.9 µM [inhibitor, partial curve, poor fit]
Cc1ccc(C(=O)N2CCc3ccccc32)cc1 | inconclusive: 16.9 µM [inhibitor, partial curve, poor fit]
Nc1ccc(C(=O)NC2CCSc3ccccc32)cc1[N+](=O)[O-] (stereo unspecified) | inconclusive: 26.9 µM [inhibitor, partial curve, poor fit]
COC(CNC(=O)CCc1c(C)nc2c(-c3ccc(F)cc3)c(C)nn2c1C)OC | inconclusive: 5.36 µM [inhibitor, partial curve, poor fit]
COc1ccc(Nc2nccc(-c3ccc(C#N)cc3)n2)cc1 | inactive
CCC(C)(C)C1CCc2[nH]nc(C(=O)NCC3CC3)c2C1 (stereo unspecified) | inconclusive: 16.9 µM [inhibitor, partial curve]
COc1ccc(C(=O)Nc2ccc(NC(=O)C3CC3)cn2)cc1 | inconclusive: 19 µM [inhibitor, partial curve]
FCCCOc1ccc(/C=N/OCc2ccc(Cl)cc2)cc1 | inconclusive: 30.1 µM [inhibitor, single point]
